Hit rate of the full screen: of about 110,000 compounds, about 230 (0.21%) showed an effect of 50% or more. Some of the results follow.
Biological target: DPAP1 (Plasmodium falciparum, UniProt Q8IIJ9)
Experiment: primary screen, percent inhibition; read by cleavage of a fluorogenic dipeptide substrate; higher = more effect of the substance
Parameters: species or system P. falciparum D10 trophozoite lysates; single well
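Also: 30 min substrate incubation versus DMSO and 10 µM JCP410 controls.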

Chain of DPAP1 (Q8IIJ9 whole entry, looked up): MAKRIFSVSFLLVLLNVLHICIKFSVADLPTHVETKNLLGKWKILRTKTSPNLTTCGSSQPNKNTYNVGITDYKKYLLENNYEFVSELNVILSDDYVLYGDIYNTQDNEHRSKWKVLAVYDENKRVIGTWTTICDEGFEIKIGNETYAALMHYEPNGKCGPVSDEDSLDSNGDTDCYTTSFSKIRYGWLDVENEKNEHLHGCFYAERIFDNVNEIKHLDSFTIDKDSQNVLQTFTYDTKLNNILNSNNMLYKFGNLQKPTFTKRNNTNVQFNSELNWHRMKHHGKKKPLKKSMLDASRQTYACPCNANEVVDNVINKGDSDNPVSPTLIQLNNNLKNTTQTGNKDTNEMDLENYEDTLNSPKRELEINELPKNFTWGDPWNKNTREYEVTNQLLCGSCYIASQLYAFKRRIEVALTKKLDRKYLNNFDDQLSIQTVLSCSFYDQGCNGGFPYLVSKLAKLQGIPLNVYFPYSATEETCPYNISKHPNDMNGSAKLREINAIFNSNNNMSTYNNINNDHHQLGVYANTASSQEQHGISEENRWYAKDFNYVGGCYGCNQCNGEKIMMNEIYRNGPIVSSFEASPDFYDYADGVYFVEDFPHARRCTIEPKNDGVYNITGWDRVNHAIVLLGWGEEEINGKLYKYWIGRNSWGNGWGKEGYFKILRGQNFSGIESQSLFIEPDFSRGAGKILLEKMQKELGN

| Structure (SMILES) | % Inhibition @ 10 uM |
| --- | --- |
| COc1cccc(C2C(C#N)=C(N)Oc3[nH]nc(C)c32)c1OCc1ccccc1Cl (centres unmarked) | 4.67% |
| CCN(CC)CC(=O)Nc1csc2nc(C)cc(C)c12 | -1.82% |
| CCN(CCCNC(=O)c1cc(-c2ccccc2)c(N2CCOCC2)s1)Cc1ccccc1 | -8.04% |
| Cc1nn2c(=O)c3c4c(sc3nc2n(-c2ccccc2)c1=O)COC(C)(C)C4 | -4.15% |
| COc1ccc(C(=O)NC(C)C(c2cccs2)N2CCN(C)CC2)cc1 (centres unmarked) | -1.08% |
| CC1(C(=O)O)C2CCCCC2=C2CCCCC2C1C(=O)O (centres unmarked) | -0.216% |
| CCN(CC)CCCOC(=O)c1ccc(O)c(OC)c1 | -7.15% |
| O=C(Cn1nnc(-c2cccs2)n1)N1CCOCC1 | -3.34% |
| C[C@@H](C[C@H](NC(=O)c1ccc(-c2ccccc2Cl)cc1)C(=O)N[C@H](/C=C/S(=O)(=O)c1ccccc1)CCc1ccc(O)cc1)c1ccccc1 | 2.87% |
| COc1ccc(CN2CCN(c3ccc(F)cc3)CC2)c(OC)c1 | -3.56% |
| CCCOC(=O)c1ccc(OCC(O)Cn2c(C)nc3ccccc32)cc1 (centres unmarked) | -2.91% |
| N#CC1=C(N)Oc2cc(O)ccc2C1c1ccccc1C(F)(F)F (centres unmarked) | 1.4% |
| O=C1CC(C(=O)N(c2ccccc2)c2ccccc2)C(c2ccccc2)O1 (centres unmarked) | 0.716% |
| Cc1ccc(C(=O)N/C(=C\c2ccco2)C(=O)NCCN2CCCCC2)cc1C | -3.06% |
| N#Cc1cc2c(nc1SCC(=O)Nc1ccc(S(=O)(=O)Nc3nccs3)cc1)CCCCC2 | 2.36% |
| COCCNC(=O)c1cc2c(-c3ccccc3F)nn(C)c2s1 | -3.23% |
| COCC(C)NCc1ccc(F)cc1 (centres unmarked) | 5.04% |
| CCN(CC)CCCNC(=O)C1CCCN(c2nnc(C)c3c(C)n(-c4ccc(Cl)cc4)nc23)C1 (centres unmarked) | 6% |
| CCOc1ccc(CNCc2c(C(=O)O)n(Cc3ccccc3C)c3cc(OC)ccc23)cc1 | -3.46% |
| O=C(CSC1=NC(=O)C(Cc2ccccc2)C(=O)N1)Nc1ncccn1 (centres unmarked) | -4.6% |
| Oc1c(Br)cc(CN2CCCCC2)c2cccnc12 | -3.09% |
| O=C1CC(c2nc3cc4ccccc4cc3[nH]2)CN1c1ccc(Cl)cc1 (centres unmarked) | -2.8% |
| O=C(NCc1ccc(F)cc1)C(Cc1ccccc1)n1cccc1 (centres unmarked) | -0.692% |
| COc1ccc(/C=C/c2nn3c(-c4ccccc4Cl)nnc3s2)cc1 | 3.38% |
| CCOC(=O)c1c(NC(=O)c2ccccc2Cl)sc2c1CCCC2=O | -5.08% |
| Cc1ccc(Cn2nnc3c(=O)n(CC(=O)c4ccc(Cl)cc4)cnc32)cc1 | 4.41% |

| Structure (SMILES) | % Inhibition @ 10 uM |
| --- | --- |
| COc1cccc(OCCNC(=O)Cc2cccc3ccccc23)c1 | -3.76% |
| Cc1cc(C)c2c(-n3cccc3)c(C(=O)N3CCN(c4ccccn4)CC3)sc2n1 | 0.623% |
| Cc1c(CN2CCN(c3ccccn3)CC2)c(=O)n(-c2ccccc2)n1C | 2.99% |
| CCOC(=O)c1c(NC(=O)CSc2nnnn2-c2ccccc2)sc2c1CCCCC2 | 3.43% |
| CCC(Cc1ccccc1)NC(=O)c1ccc2nc(N3CCOCC3)sc2c1 (centres unmarked) | 0.828% |
| O=C(Nc1cccc(Cl)c1)C(O)c1ccccc1 (centres unmarked) | 0.847% |
| O=C(CCCOc1ccc(Cl)cc1Cl)n1nnc2ccccc21 | -4.13% |
| COc1cc(OC)c(OC)cc1CN1CCc2ccccc2C1 | 8.32% |
| O=C(c1ccc(N2CCN(C(=O)c3cccs3)CC2)cc1)c1cccc(F)c1 | 5.29% |
| NC(CC(=O)O)c1ccccc1 (centres unmarked) | 0.503% |
| Cc1cc(C)c(S(=O)(=O)Nc2ccccc2C#N)c(C)c1 | -1.42% |
| COc1ccc(-c2c(C#N)c(N)nc3c2CCCC3)cc1COCC(F)(F)F | -0.67% |
| N#C/C(=C\c1ccccc1C(F)(F)F)C(N)=S | -3.78% |
| Oc1c2cnnc-2nc2ccccn12 | -9.37% |
| CCCNC(=O)c1cc(-c2ccc(C)o2)nc2ccccc12 | 0.993% |
| CCOC(=O)C1=C(CC)OC(N)=C(C#N)C1c1ccc(Cl)c(Cl)c1 (centres unmarked) | 0.317% |
| COCCNC(=O)CSc1nc(-c2ccc(F)cc2)cc(C(F)(F)F)n1 | 2.46% |
| COc1ccc(OC)c(NC(=O)c2ccccc2OC)c1 | 6.79% |
| CCNc1nc(NCC)nc(-n2nc(C)cc2C)n1 | 3.76% |
| CCOc1ccc(C2c3c(oc4ccccc4c3=O)C(=O)N2c2nncs2)cc1OC (centres unmarked) | -5.24% |
| O=C(Nc1ccccc1-n1cccc1)c1cccs1 | 1.28% |
| Brc1ccccc1OCCCCN1CCCC1 | 3.35% |
| O=C(Nc1ccc(Br)cc1)c1ccc(Cl)c([N+](=O)[O-])c1 | -5.32% |
| CCOC(=O)c1cnn2c(C(F)(F)F)cc(-c3ccccc3)nc12 | 6.09% |
| CC1=C(c2ccc(C)c(C)c2)S(=O)(=O)N(Cc2ccc(C(=O)NCCc3ccccc3)cc2)C1=O | -1.6% |
| COc1ccc(C2C=C(c3ccc(Br)cc3)Nc3ncnn32)cc1OC (centres unmarked) | 4.05% |

| Structure (SMILES) | % Inhibition @ 10 uM |
| --- | --- |
| COc1cc(OC)cc(C(=O)Nc2ccccc2Cl)c1 | 0.956% |
| CC(Cc1cccc(C(F)(F)F)c1)N1CCN(C)CC1 (centres unmarked) | -1.75% |
| CC1(C)Cc2c(ccc3ccccc23)/C(=C/C(=O)N2CCCCCC2)N1 | 0.215% |
| COc1ccccc1C(=O)Nc1ccc(S(=O)(=O)Nc2onc(C)c2C)cc1 | 0.873% |
| COc1ccc(/N=C2\SC(CC(=O)Nc3cccc(C)c3C)C(=O)N2C)cc1 (centres unmarked) | 2.65% |
| CC(=O)C1=NN(c2ccccc2C)C2C(=O)N(c3ccccc3Cl)C(=O)C12 (centres unmarked) | -1.28% |
| CCCCc1ccc(C2C(C#N)=C(N)OC3=C2C(=O)CC(C)(C)C3)s1 (centres unmarked) | -3.42% |
| Cc1nn(CCCC(=O)N2CCN(Cc3ccc4c(c3)OCO4)CC2)c(=O)c2cc3sccc3n12 | 3.4% |
| c1ccc(C(CCNc2ncnc3[nH]cnc23)c2ccccc2)cc1 | -11.3% |
| Brc1ccc2[nH]c3c(c2c1)CCCC3NCCc1ccccc1 (centres unmarked) | -0.0404% |
| Cn1c(C(=O)N2CCCC(C(=O)N3CCc4ccccc4C3)C2)cc2sccc21 (centres unmarked) | -3% |
| COc1ccccc1CNCc1ccccc1C(F)(F)F | 6.12% |
| CC(C)C[C@H](NC(=O)OCCc1ccccc1)C(=O)NCC#N | -0.0207% |
| c1ccc(CN2CCC(NC3CC3)CC2)cc1 | -3.27% |
| CCOc1cc(C2C(C#N)=C(N)Oc3c2c(C)nn3-c2cccc(Cl)c2)ccc1O (centres unmarked) | -1.6% |
| O=S(=O)(NC1CCN(Cc2ccccc2)CC1)c1ccc(-c2ccc(O)nn2)s1 | 3.1% |
| COc1cc(/C=C2\C(=O)ON=C2C)cc(Br)c1O | -7.09% |
| CC(C)N(CCCNC(=O)CCN1C(=O)c2ccccc2Sc2ncccc21)Cc1ccccc1 | 2.86% |
| CCOc1cccc(/C=C2/NC(=O)N(CC)C2=O)c1O | -2.09% |
| Nc1nc(CN2CCCCCC2)nc(Nc2ccccc2)n1 | -7.78% |
| CCOC(=O)c1ccc2ncc(C(=O)OCC)c(NCCCOC(=O)c3ccc(OC)cc3)c2c1 | 3.16% |
| CC(C)(C)C(=O)Nc1sc2c(c1C#N)CCC2 | -4.49% |
| O=C(O)CCCNC(=O)C(O)(c1ccccc1)c1ccccc1 | -5.4% |
| CCn1cc(Cl)c(C(=O)Nc2cccc(CN3CCOCC3)c2)n1 | 0.726% |
| Cc1cc(Cl)ccc1OCC(O)CN1CCC(O)(c2ccc(Cl)cc2)CC1 (centres unmarked) | -6.86% |
| O=[N+]([O-])c1ccc(CN2CCCCCCC2)cc1 | 6.08% |

| Structure (SMILES) | % Inhibition @ 10 uM |
| --- | --- |
| CSc1ccc(NC(=O)c2sc3nc(N)c(C#N)cc3c2N)cc1 | 2.68% |
| CCSc1nc(O)c(C(c2ccccc2)c2ccccc2)c(O)n1 | 3.35% |
| CCOC(=O)c1c(C)c(C(=O)NCCCOC(C)C)c(C)n1C | -1.66% |
| CC(=O)c1ccc(N2CCN(Cc3ccc(-c4ccccc4)cc3)CC2)cc1 | -3.27% |
| CCCCc1nc(SCC(=O)NCc2ccccc2)c2c3c(sc2n1)COC(C)(C)C3 | 0.565% |
| Cc1nn(Cc2ccc(C(=O)Nc3ccc(C(=O)O)cc3)o2)c(C)c1Cl | -3.19% |
| O=CN1CCN(C2CCC(c3ccccc3)CC2)CC1 (centres unmarked) | -5.11% |
| COc1ccccc1/C=C/CN1CCN(c2cccc(C(F)(F)F)c2)CC1 | -5.26% |
| Cc1ccccc1/C=C1\N=C(c2ccc(Br)cc2)OC1=O | 1.25% |
| O=C(CSc1nc2cccnc2[nH]1)c1ccc(Br)cc1 | 3.24% |
| CCN(CC)C(=O)C1CCCN(Cc2cc(Br)ccc2OC)C1 (centres unmarked) | -1.93% |
| O=c1oc(-c2ccccc2)cc(Cl)c1Cl | 8.06% |
| O=C(Cn1ncc2ccc(Cl)cc21)NCc1ccc2c(c1)OCO2 | -2.88% |
| O=C1c2ccccc2C(=O)N1CC#Cc1ccccc1 | 5.66% |
| Cc1nc2c(c(C)nn2C)c(C)c1CCC(=O)NCCCc1ccccc1 | -2.45% |
| Cc1ccc(S(=O)(=O)N(C)c2c(C)ccc(S(=O)(=O)N3CCN(C)CC3)c2C)cc1 | 2.01% |
| O=C(COc1ccc2ccccc2c1)Nc1ccccc1OC(F)F | 5.48% |
| O=C(O)c1cc2c(ccc3ccccc32)[nH]1 | 1.88% |
| CCC(C)NC(=O)[C@@H](c1ccccc1)N1Cc2ccccc2C1=O (some centres unmarked) | 2.72% |
| COc1ccc(C)cc1NC(=O)c1ccc([N+](=O)[O-])cc1Cl | 1.04% |
| COc1ccc(CCn2c(C)cc3c(c2=O)C(c2ccccc2)C(C#N)=C(N)O3)cc1OC (centres unmarked) | -3.63% |
| Oc1nc(Cn2nnc(-c3ccc4c(c3)OCO4)n2)nc2ccccc12 | -1.05% |
| Cc1ccc(C(=O)NCc2ccccc2)o1 | -0.132% |

— article PMC6919601, “Identification of Plasmodium dipeptidyl aminopeptidase allosteric inhibitors by high throughput screening” (PLoS ONE, 2019)
